Experimental data: PMC4336329 (PLoS ONE, 2015)
Screen size: about 310,000 compounds; about 14,000 (4.5%) showed an effect of 50% or more. The effect is printed as a negative number. This is one part of the list.

target: human ether-à-go-go-related gene (hERG) potassium channel (human, UniProt Q12809); assay: primary screen, population patch clamp on CHO cells stably expressing hERG
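Further: peak tail current of the secondary pulse compared with the same well before compound.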

human ether-à-go-go-related gene (hERG) potassium channel, sequence (Q12809 whole entry, looked up): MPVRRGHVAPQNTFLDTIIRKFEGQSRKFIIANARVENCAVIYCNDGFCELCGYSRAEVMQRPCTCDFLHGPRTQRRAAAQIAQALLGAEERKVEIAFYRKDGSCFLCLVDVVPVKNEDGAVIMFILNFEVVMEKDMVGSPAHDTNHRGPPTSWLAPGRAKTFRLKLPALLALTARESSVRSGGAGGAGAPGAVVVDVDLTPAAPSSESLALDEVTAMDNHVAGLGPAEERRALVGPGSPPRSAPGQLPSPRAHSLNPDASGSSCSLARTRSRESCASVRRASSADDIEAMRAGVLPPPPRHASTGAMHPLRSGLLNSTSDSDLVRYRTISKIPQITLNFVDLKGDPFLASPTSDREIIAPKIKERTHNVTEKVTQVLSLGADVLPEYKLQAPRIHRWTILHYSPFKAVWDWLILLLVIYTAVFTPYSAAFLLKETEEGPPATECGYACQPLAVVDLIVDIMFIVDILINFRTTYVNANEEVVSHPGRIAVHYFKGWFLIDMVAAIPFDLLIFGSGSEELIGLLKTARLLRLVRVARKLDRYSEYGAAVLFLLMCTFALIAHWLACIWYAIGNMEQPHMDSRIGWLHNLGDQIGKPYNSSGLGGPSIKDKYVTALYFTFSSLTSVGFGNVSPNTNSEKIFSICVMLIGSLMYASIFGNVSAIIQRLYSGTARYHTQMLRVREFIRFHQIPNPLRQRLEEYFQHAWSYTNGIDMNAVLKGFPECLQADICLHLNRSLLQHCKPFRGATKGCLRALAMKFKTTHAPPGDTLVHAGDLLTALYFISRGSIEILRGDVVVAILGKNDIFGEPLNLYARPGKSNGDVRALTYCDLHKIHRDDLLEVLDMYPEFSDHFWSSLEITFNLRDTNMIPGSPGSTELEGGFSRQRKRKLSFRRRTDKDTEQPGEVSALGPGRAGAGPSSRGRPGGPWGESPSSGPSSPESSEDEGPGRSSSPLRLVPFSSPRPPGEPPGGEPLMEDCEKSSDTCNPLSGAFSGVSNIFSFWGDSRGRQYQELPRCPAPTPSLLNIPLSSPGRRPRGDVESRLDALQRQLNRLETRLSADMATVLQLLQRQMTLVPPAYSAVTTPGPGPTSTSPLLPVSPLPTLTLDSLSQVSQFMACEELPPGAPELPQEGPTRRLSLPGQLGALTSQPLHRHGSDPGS

Structure (SMILES) | hERG current change (%, negative = inhibition) at 10uM [%]
Cc1ccc(S(=O)(=O)NC(C(=O)N2CCOCCOCCOCCOCC2)C(C)C)cc1 (stereo not drawn) | 19.1
COc1ccc(C(=O)Nc2ccc3c(c2)nc(CCNC(C)=O)n3C)cc1 | 14.6
S=C(NC12CC3CC(CC(C3)C1)C2)N1CCOCC1 | 15.4
CCC(=O)Nc1c(C(=O)Nc2cccc(OC)c2)oc2ccccc12 | 10.4
CCN(CC)c1ccc(NC(=S)NC(=O)C2CCC2)cc1 | 17
O=C(c1ccc(N2CC3CC(C2)c2cccc(=O)n2C3)c([N+](=O)[O-])c1)N1CCCC1 (stereo not drawn) | -13
CCCCNC(=O)CCCCn1c(=S)[nH]c2c([nH]c3ccc(OC)cc32)c1=O | 31
CC(C)(C)NC(=O)NC(=O)CN1CCC(Cc2ccccc2)CC1 | -8.8
Cc1sc(NC(=O)CSc2nnc(CCNC(=O)c3cccs3)n2C)nc1-c1ccccc1 | -43.8
COc1ccc(S(N)(=O)=O)cc1C(=O)N(C)CC(=O)Nc1ccc(N2CCOCC2)cc1 | 20.5
COc1ccccc1-n1c(SCC(=O)O)nc2c(sc(=S)n2-c2ccccc2C)c1=O | 14.5
CCCn1c(SC(C(=O)Nc2cc(C)ccc2OC)c2ccccc2)nc2ccccc2c1=O (stereo not drawn) | -5.09
COc1ccc(CCNc2cc(N3CCN(C(=O)c4ccc(C)cc4)CC3)ccc2[N+](=O)[O-])cc1OC | 8.2
CCOC(=O)c1c(C)[nH]c(C)c1C(=O)CSc1nnnn1-c1ccccc1 | 0.494
Cl.NC(=O)C1CCN(Cc2nnnn2Cc2ccco2)CC1 | 12.3
CN(CCc1ccccn1)C(=O)CCC1CCCN(C(=O)CCOc2ccccc2)C1 (stereo not drawn) | 0.23
COc1ccc(S(=O)(=O)N2CCCC(C(=O)NCCN3CCOCC3)C2)cc1C (stereo not drawn) | -12.4
COc1cccc(CC(=O)Nc2nc(-c3cccnc3)cs2)c1 | -0.027
Cc1c(CC(=O)NC(C)C)c(=O)oc2cc3c(cc12)CCC(C)(C)O3 | 14.1
O=C(NCCCN1CCOCC1)c1ccc(/C=C2\Oc3ccccc3N(Cc3ccccc3F)C2=O)cc1 | 11.6
O=C(O)C(=O)O.OCCN(Cc1ccccc1)Cc1ccccc1O | 5.17

Structure (SMILES) | hERG current change (%, negative = inhibition) at 10uM [%]
Cc1ccc(S(=O)(=O)NCCCC(=O)N2CCC(C)CC2)cc1 | -0.448
CC(C)(Oc1ccc(CCNC(=O)c2ccc(-c3ccc(Cl)cc3)o2)cc1)C(=O)O | 10.3
COc1cc(/C=C/c2noc(-c3ccccc3O)n2)cc(OC)c1OC | 9.26
Cc1ccc(Cl)cc1NC(=O)CC(O)(C(F)(F)F)C(F)(F)F | -5.02
COC(=O)c1c(C(=O)OC)c(-c2ccc(F)cc2)n2c1CS(=O)(=O)C2 | -1.29
CC(OC(=O)c1ccc(Cl)c(S(=O)(=O)N2CCc3ccccc32)c1)C(=O)Nc1ncc(Cl)cc1Cl (stereo not drawn) | -13.2
COc1ccc2ccccc2c1-c1sc(Nc2ccccc2)n[n+]1-c1ccc(F)cc1.[Cl-] | -57.4
Cc1c(C(=O)N2CCCCCC2)nnn1-c1nonc1N | 1.22
COc1ccc(C(=O)Nc2nc(-c3ccc([N+](=O)[O-])cc3)c(-c3ccc(OC)cc3)s2)cc1 | 18.9
COc1cccc2cc(-c3ccccc3)c(=O)oc12 | -4.86
Oc1ccccc1-c1nc2cnccn2c1Nc1ccc2c(c1)OCCO2 | -5.98
Cc1ccc(NC(=O)Nc2nnc(Cc3ccc([N+](=O)[O-])cc3)s2)cc1C | 28.5
O=C(CC1NC(=O)NC1=O)Nc1cccc2ccccc12 (stereo not drawn) | -10.8
NS(=O)(=O)c1ccc(CCNC(=O)c2ccccc2[N+](=O)[O-])cc1 | 18.6
CCc1cc2c(=O)c(-c3nc4ccccc4n3C)c(C)oc2c(CN2CCOCC2)c1O | 0.344
Cc1cc(C(=O)N2CCN(c3ccccc3)CC2)c(C)o1 | -1.46
O=C(COc1ccccc1)Nc1ccccc1N1CCN(c2ccc(F)cc2)CC1 | 0.708
CC(C)(C)OC(=O)C(C)(C)O/N=C(\C(=O)O)c1csc(N)n1 | 31.5
CN(c1ccc(OCC(=O)N2CCN(C/C=C/c3ccccc3)CC2)cc1)S(=O)(=O)c1cccs1.Cl | -30.6
CCOC(=O)CSc1nnc(CNC(=O)Cc2ccccc2)n1C | 6.75
CC(C)CC(=O)NC(=S)Nc1cccc(NC(=O)c2ccccc2)c1 | 12

Structure (SMILES) | hERG current change (%, negative = inhibition) at 10uM [%]
CN(C)C=Nc1ncc2c3ccccc3n(Cc3ccccc3)c2c1C#N | 8.62
CC1(C)Cc2c(sc3ncn4nc(-c5ccco5)nc4c23)CO1 | 2.34
CCNC(=O)NC1(C(=O)Nc2ccc3c(c2)OCCO3)CCCCC1 | 4.95
COc1cc(CNc2ccc3[nH]c(=O)[nH]c3c2)ccc1OCc1ccc(Cl)cc1 | 26.7
COc1cccc(NC(=O)c2cccc(Cl)c2)c1 | -19.9
COc1ccc(CNC(=O)CN2C(=O)CSc3ccc(S(=O)(=O)N4CCCCC4)cc32)cc1 | -41.5
COCCn1c(=NC(=O)/C=C/c2cccs2)sc2cc(NC(C)=O)ccc21 | -0.155
COC(=O)/C=C1\SC(=NC(=O)c2ccc(C)cc2)NC1=O | 27
CC1CC(C)CN(S(=O)(=O)c2ccc3c(c2)C(C)(C)C(=O)N3C)C1 (stereo not drawn) | -0.263
O=C(CCc1ccccc1)N1N=C(c2ccncc2)CC1(O)C(F)(F)F (stereo not drawn) | 4.06
CCOC(=O)c1c(C)oc(NC(=O)COc2ccc(Cl)cc2C)c1C#N | 3.53
CCc1ccccc1N/N=C(/C)c1c(O)cc(C)oc1=O | -1.91
Cc1nc(N2CCOCC2)c2c(C)c(C(=O)Nc3ccccc3C(F)(F)F)sc2n1 | 9.72
CCOC(=O)Cc1csc(NC(=O)c2cccs2)n1 | -13.8
N/C(=N/OS(=O)(=O)c1ccc([N+](=O)[O-])cc1)c1ccncc1 | 3.67
Cc1ccc(SCc2ccc(C(=O)Nc3cccnc3)cc2)cc1 | 13.2
COc1ccc(NC(=O)COC(=O)/C=C/c2ccccc2[N+](=O)[O-])cc1OC | -3.21
Cc1ccc2cccc(NC(=S)NC(=O)c3c(Br)cnn3C)c2n1 | 6.09
CCOC(=O)Cn1nc(C)cc1NC(=O)c1cc(OC)c(OC)c(OC)c1 | 6
Cc1cccc(NC(=O)C23CCC(C)(C(=O)O2)C3(C)C)c1 (stereo not drawn) | 13
COc1cccc(NC(=O)Cn2c(=O)n(-c3ccccc3)c(=O)c3oc4ccccc4c32)c1 | 2.55

Structure (SMILES) | hERG current change (%, negative = inhibition) at 10uM [%]
O=C(O)CCC(NS(=O)(=O)c1ccc(N2CCCC2=O)cc1)C(=O)O (stereo not drawn) | -7.11
O=C(CNC(=O)c1ccccc1O)N/N=C/c1cc(Br)ccc1OC(=O)/C=C/c1ccco1 | 14.7
C[C@@]12C(=O)N(Cc3ccc(-c4ccccc4)cc3)CC(=O)N1[C@H](/C=C/c1ccccc1)[C@@H]1C(=O)N(c3ccccc3)C(=O)[C@@H]12 | -10.9
NS(=O)(=O)c1ccc(S(=O)(=O)N(CCc2ccccc2)Cc2ccccn2)cc1 | -14.2
COc1ccc(NC(=O)CSCC(=O)N(C)Cc2ccc(Cl)c(Cl)c2)cc1 | -28.9
Nc1cc(=O)[nH]c(SCc2csc(-c3ccccc3)n2)n1 | -3.63
CC(C)(C)c1ccc(OCc2ccc(C(=O)N/N=C3\CC4CC=CC34)cc2)cc1 (stereo not drawn) | -0.565
O=C(Oc1coc(CSc2nnc(NC(=O)c3cccs3)s2)cc1=O)c1ccccc1 | 7.37
O=C(CN1c2ccccc2S(=O)(=O)c2ccccc21)NCc1ccc(F)cc1 | 3.58
Cc1nnc2c3ccccc3c(-c3cccs3)nn12 | -5.86
CC(Sc1nnnn1C)C(=O)Nc1ccccc1-c1ccccc1 (stereo not drawn) | 15.3
Cc1cccc(-c2nnc(SC(C)C(=O)N3CCOCC3)o2)c1 (stereo not drawn) | 7.83
O=C(NC1=NCCS1)c1cc2ccccc2o1 | -23.8
CN1C(C)(C)c2ccccc2OS1(=O)=O | 4.02
Cc1ccc(N/N=C(\C#N)C(=O)c2ccsc2)cc1 | 2.77
CC(=O)Nc1ccc(C(=O)COC(=O)CCN2C(=O)C3CC=CCC3C2=O)cc1 (stereo not drawn) | 18.4
CC(=O)N(c1ccc(C(C)C)cc1)C1C=CS(=O)(=O)C1 (stereo not drawn) | 3.93
COc1cc(S(=O)(=O)N2CCOCC2)c(OC)c(S(=O)(=O)N2CCOCC2)c1 | 7.57
Cc1nc2nc(SCc3nc4ccccc4[nH]3)[nH]c2cc1Br | 14.1
COC(=O)C1=C(c2ccc(C(C)=O)cc2)C[C@@H]2CC[C@H]1N2C(=O)NC(C)C | 15
COc1ccc(C)cc1NC(=O)CN1CCN(S(=O)(=O)c2ccc(Br)cc2)CC1 | -30.5
